We go through 5 compounds from the supplement of paper PMC4604168 (melanoma cell lines).

Some of the results follow. Single values are uncertain, as repeats are few or missing.
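Further: cells treated in 1,536-well plates, then fixed and DAPI-stained, with nuclei counted from automated high-throughput microscope images.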

The subject of this assay is WM3619. As to the kind of experiment: cell count relative to DMSO control; melanoma cells; higher = more viable cells. The settings on record: library dose: standard library concentration; 72 h.
`COc1cc([C@@H]2c3cc4c(cc3[C@@H](O[C@@H]3O[C@@H]5CO[C@@H](C)O[C@H]5[C@H](O)[C@H]3O)[C@H]3COC(=O)[C@H]23)OCO4)cc(OC)c1O` [etoposide] + NC(=O)Nc1cc(-c2cccc(F)c2)sc1C(=O)N[C@H]1CCCNC1 [AZD7762] (first compound 0.1 µM, partner dose 0.1 µM) showed a cell count of 18%. The same measure for `Cn1cnc2c(F)c(Nc3ccc(Br)cc3Cl)c(C(=O)NOCCO)cc21` [selumetinib] + CN(C)S(=O)(=O)c1ccc2c(c1)/C(=C/c1cc3c([nH]1)CCCC3)C(=O)N2 [SU6656] (first compound 0.075 µM, partner dose 2 µM): 70.5%; for `C[C@]1(O)C[C@@H](c2nc(-c3ccc4ccc(-c5ccccc5)nc4c3)c3c(N)nccn32)C1` + CO[C@@H]1[C@H](N(C)C(=O)c2ccccc2)C[C@H]2O[C@]1(C)n1c3ccccc3c3c4c(c5c6ccccc6n2c5c31)C(=O)NC4 [Midostaurin] (first compound 2 µM, partner dose 0.4 µM): 75.9%; for `Cn1cnc2c(F)c(Nc3ccc(Br)cc3Cl)c(C(=O)NOCCO)cc21` [selumetinib] + C[C@@H]1CCN(C(=O)CC#N)C[C@@H]1N(C)c1ncnc2[nH]ccc12 [CP690550] (first compound 0.075 µM, partner dose 5 µM): 69.4%.

As to `Cn1cnc2c(F)c(Nc3ccc(Br)cc3Cl)c(C(=O)NOCCO)cc21` [selumetinib] + OCCn1cc(-c2cnc3nnn(Cc4ccc5ncccc5c4)c3n2)cn1 [PF04217903] (first compound 0.075 µM, partner dose 5 µM), the cell count was 67.8%.
